For the test, the target named is T1, Lig1•PCNA complex prebound on the nick product (Lig1•PCNA•NP) (human, UniProt P18858 1-919; P12004).
T1 construct: DNA Ligase 1 (Lig1) WT, human, tag-free; PCNA WT, human; DNA, RFC, RPA and ATP are present; source: both proteins from E. coli, purified; assembled on PCNA-loaded Alexa647-labeled nick DNA with 3′ ddC (Sub#30); copies: + 3
The experiment in a line: other fluorescence titration; apparent; FRET from FEN1-Cy3 to Alexa647 on the DNA: Lig1 (500 nM) prebound to PCNA-loaded nick DNA with 3′ ddC (Sub#30), FEN1-Cy3 titrated; rise of Alexa647 emission fitted to a quadratic dependence; 22 °C, 50 mM HEPES-KOH pH 7.5, 100 mM KCl, 10 mM MgCl2, 1 mM ATP. To be noted: both partners purified.

T1 sequence (P18858 whole entry, chain 1 of 2): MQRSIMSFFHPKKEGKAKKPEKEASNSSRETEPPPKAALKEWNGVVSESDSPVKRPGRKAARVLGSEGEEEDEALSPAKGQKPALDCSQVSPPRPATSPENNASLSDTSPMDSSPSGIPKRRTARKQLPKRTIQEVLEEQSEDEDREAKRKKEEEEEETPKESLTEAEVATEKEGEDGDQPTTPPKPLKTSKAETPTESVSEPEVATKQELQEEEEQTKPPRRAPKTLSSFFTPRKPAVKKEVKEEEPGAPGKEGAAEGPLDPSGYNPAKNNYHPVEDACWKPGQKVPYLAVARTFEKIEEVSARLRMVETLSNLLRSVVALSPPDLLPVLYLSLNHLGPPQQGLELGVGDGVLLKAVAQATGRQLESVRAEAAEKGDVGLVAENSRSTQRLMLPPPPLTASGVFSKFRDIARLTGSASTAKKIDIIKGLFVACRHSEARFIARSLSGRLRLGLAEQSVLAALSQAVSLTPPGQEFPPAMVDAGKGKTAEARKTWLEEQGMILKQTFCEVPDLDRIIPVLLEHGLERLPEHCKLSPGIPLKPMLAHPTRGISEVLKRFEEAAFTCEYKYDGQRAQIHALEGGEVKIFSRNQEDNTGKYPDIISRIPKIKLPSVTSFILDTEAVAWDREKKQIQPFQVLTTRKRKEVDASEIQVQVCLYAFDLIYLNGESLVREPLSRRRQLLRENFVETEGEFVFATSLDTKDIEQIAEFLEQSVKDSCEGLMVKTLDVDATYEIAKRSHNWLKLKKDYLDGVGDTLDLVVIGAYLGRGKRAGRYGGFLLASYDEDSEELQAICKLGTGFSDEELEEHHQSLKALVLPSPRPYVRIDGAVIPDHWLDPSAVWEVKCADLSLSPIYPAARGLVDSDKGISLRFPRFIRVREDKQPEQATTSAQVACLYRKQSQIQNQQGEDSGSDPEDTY
T1 sequence (P12004 whole entry, chain 2 of 2, further chain): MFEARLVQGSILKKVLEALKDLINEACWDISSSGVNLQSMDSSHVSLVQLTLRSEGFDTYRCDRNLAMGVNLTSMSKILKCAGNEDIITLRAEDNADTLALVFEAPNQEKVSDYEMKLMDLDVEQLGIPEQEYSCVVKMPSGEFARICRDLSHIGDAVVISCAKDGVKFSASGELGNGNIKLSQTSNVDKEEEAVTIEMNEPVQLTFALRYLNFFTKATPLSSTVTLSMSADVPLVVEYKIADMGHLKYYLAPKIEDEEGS

B1: FEN1 S293C labeled with Cy3 (enzyme)
chain: not shown
modifications: Cy3 maleimide on S293C, final stoichiometry 1:1 Cy3 to FEN1
notes: Flap endonuclease-1 (FEN1), human, S293C; the limits […] are printed for FEN1 WT, of which this is the point mutant; also called FEN1-Cy3; Cy3-labeled FEN1; source: E. coli, purified using the SUMO system; labeled with Cy3 maleimide
In the case of B1, the Kd was about 20 nM.

The values are drawn from PMC9666535, “Mechanistic investigation of human maturation of Okazaki fragments reveals slow kinetics” (Nature Communications, 2022).
